# This is one part of the list.
# B1: Gz-CVNH (Gibberella zeae) (protein)
# chain: MGSSHHHHHHSSGLVPRGSHMGNFHESSNNIWLEDGHILHAECGNGEGDYVESTLDLDYYIGNDDGSFSWGGENFSGSASNITLDIEGDDNIPVLRAELNPMDGDPVEANVNLSERIGNDCGTLIFLA
# Key:
# Assay in all cases: glycan array binding signal (z-score within array); higher = stronger binding
# Conditions in all cases: glycan notation: IUPAC condensed, linker removed
# [1] = biological target: Fuc(a1-2)Gal
# Procedure, shortened: (§1)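 Arrays were curated from the Consortium for Functional Glycomics database, 3228 in total, and kept only where the protein sequence was available. Binding is expressed as a within-array Z-score. This score was averaged across arrays of the same protein sequence at different concentrations or buffers and across linkers, and negative values can be read as non-binding.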
# [2] = biological target: Fuc(a1-2)Gal(b1-3)GalNAc
# Procedure, shortened: as §1
# [3] = biological target: Fuc(a1-2)Gal(b1-3)GalNAc(a1-3)[Fuc(a1-2)]Gal(b1-4)Glc
# Procedure, shortened: as §1
# [4] = biological target: Fuc(a1-2)Gal(b1-3)GalNAc(a1-3)[Fuc(a1-2)]Gal(b1-4)GlcNAc
# Procedure, shortened: as §1
# [5] = biological target: Fuc(a1-2)Gal(b1-3)GalNAc(b1-3)Gal
# Procedure, shortened: as §1
# [6] = biological target: Fuc(a1-2)Gal(b1-3)GalNAc(b1-3)Gal(a1-4)Gal(b1-4)Glc
# Procedure, shortened: as §1
# [7] = biological target: Fuc(a1-2)Gal(b1-3)GalNAc(b1-4)[Neu5Ac(a2-3)]Gal(b1-4)Glc
# Procedure, shortened: as §1
# [8] = biological target: Fuc(a1-2)Gal(b1-3)GlcNAc
# Procedure, shortened: as §1
# [9] = biological target: Fuc(a1-2)Gal(b1-3)GlcNAc(b1-2)Man(a1-3)[Fuc(a1-2)Gal(b1-3)GlcNAc(b1-2)Man(a1-6)]Man(b1-4)GlcNAc(b1-4)GlcNAc
# Procedure, shortened: as §1
# [10] = biological target: Fuc(a1-2)Gal(b1-3)GlcNAc(b1-2)Man(a1-3)[Fuc(a1-2)Gal(b1-3)GlcNAc(b1-2)Man(a1-6)]Man(b1-4)GlcNAc(b1-4)[Fuc(a1-6)]GlcNAc
# Procedure, shortened: as §1
# [11] = biological target: Fuc(a1-2)Gal(b1-3)GlcNAc(b1-3)Gal(b1-4)Glc
# Procedure, shortened: as §1
# [12] = biological target: Fuc(a1-2)Gal(b1-3)GlcNAc(b1-3)GalNAc
# Procedure, shortened: as §1
# [13] = biological target: Fuc(a1-2)Gal(b1-3)GlcNAc(b1-3)[Fuc(a1-3)[Gal(b1-4)]GlcNAc(b1-6)]Gal(b1-4)Glc
# Procedure, shortened: as §1
# [14] = biological target: Fuc(a1-2)Gal(b1-3)GlcNAc(b1-3)[Gal(b1-4)GlcNAc(b1-6)]Gal(b1-4)Glc
# Procedure, shortened: as §1
# [15] = biological target: Fuc(a1-2)Gal(b1-3)GlcNAc(b1-3)[Neu5Ac(a2-6)Gal(b1-4)GlcNAc(b1-6)]Gal(b1-4)Glc
# Procedure, shortened: as §1
# [16] = biological target: Fuc(a1-2)Gal(b1-3)[Fuc(a1-4)]GlcNAc
# Procedure, shortened: as §1
# [17] = biological target: Fuc(a1-2)Gal(b1-3)[Fuc(a1-4)]GlcNAc(b1-2)Man(a1-3)[Fuc(a1-2)Gal(b1-3)[Fuc(a1-4)]GlcNAc(b1-2)Man(a1-6)]Man(b1-4)GlcNAc(b1-4)GlcNAc
# Procedure, shortened: as §1
# [18] = biological target: Fuc(a1-2)Gal(b1-3)[Fuc(a1-4)]GlcNAc(b1-3)[Fuc(a1-3)[Gal(b1-4)]GlcNAc(b1-6)]Gal(b1-4)Glc
# Procedure, shortened: as §1
# [19] = biological target: Fuc(a1-2)Gal(b1-3)[Fuc(a1-4)]GlcNAc(b1-3)[Gal(b1-4)GlcNAc(b1-6)]Gal(b1-4)Glc
# Procedure, shortened: as §1
# [20] = biological target: Fuc(a1-2)Gal(b1-4)Glc
# Procedure, shortened: as §1
# [21] = biological target: Fuc(a1-2)Gal(b1-4)Glc6S
# Procedure, shortened: as §1
# [22] = biological target: Fuc(a1-2)Gal(b1-4)GlcNAc
# Procedure, shortened: as §1
# [23] = biological target: Fuc(a1-2)Gal(b1-4)GlcNAc(b1-2)Man(a1-3)[Fuc(a1-2)Gal(b1-4)GlcNAc(b1-2)Man(a1-6)]Man(b1-4)GlcNAc(b1-4)GlcNAc
# Procedure, shortened: as §1
# [24] = biological target: Fuc(a1-2)Gal(b1-4)GlcNAc(b1-2)Man(a1-3)[Fuc(a1-2)Gal(b1-4)GlcNAc(b1-2)Man(a1-6)]Man(b1-4)GlcNAc(b1-4)[Fuc(a1-6)]GlcNAc
# Procedure, shortened: as §1
# [25] = biological target: Fuc(a1-2)Gal(b1-4)GlcNAc(b1-2)[Fuc(a1-2)Gal(b1-4)GlcNAc(b1-4)]Man(a1-3)[Fuc(a1-2)Gal(b1-4)GlcNAc(b1-2)Man(a1-6)]Man(b1-4)GlcNAc(b1-4)GlcNAc
# Procedure, shortened: as §1
# [26] = biological target: Fuc(a1-2)Gal(b1-4)GlcNAc(b1-3)Gal(b1-4)GlcNAc
# Procedure, shortened: as §1
# [27] = biological target: Fuc(a1-2)Gal(b1-4)GlcNAc(b1-3)Gal(b1-4)GlcNAc(b1-3)Gal(b1-4)GlcNAc
# Procedure, shortened: as §1
# [28] = biological target: Fuc(a1-2)Gal(b1-4)GlcNAc(b1-3)GalNAc
# Procedure, shortened: as §1
# [29] = biological target: Fuc(a1-2)Gal(b1-4)GlcNAc(b1-3)[Fuc(a1-2)Gal(b1-4)GlcNAc(b1-6)]GalNAc
# Procedure, shortened: as §1
# [30] = biological target: Fuc(a1-2)Gal(b1-4)GlcNAc6S
# Procedure, shortened: as §1
binder,measurement,setting,value
B1,glycan array binding signal (z-score),[1],-0.121
same,glycan array binding signal (z-score),[2],-0.139
same,glycan array binding signal (z-score),[3],-0.063
same,glycan array binding signal (z-score),[4],-0.156
same,glycan array binding signal (z-score),[5],0.034
same,glycan array binding signal (z-score),[6],-0.15
same,glycan array binding signal (z-score),[7],-0.122
same,glycan array binding signal (z-score),[8],-0.131
same,glycan array binding signal (z-score),[9],-0.072
same,glycan array binding signal (z-score),[10],-0.109
same,glycan array binding signal (z-score),[11],-0.135
same,glycan array binding signal (z-score),[12],-0.133
same,glycan array binding signal (z-score),[13],-0.161
same,glycan array binding signal (z-score),[14],-0.144
same,glycan array binding signal (z-score),[15],-0.05
same,glycan array binding signal (z-score),[16],-0.141
same,glycan array binding signal (z-score),[17],0.062
same,glycan array binding signal (z-score),[18],-0.125
same,glycan array binding signal (z-score),[19],-0.136
same,glycan array binding signal (z-score),[20],-0.154
same,glycan array binding signal (z-score),[21],-0.096
same,glycan array binding signal (z-score),[22],-0.133
same,glycan array binding signal (z-score),[23],-0.117
same,glycan array binding signal (z-score),[24],-0.105
same,glycan array binding signal (z-score),[25],-0.106
same,glycan array binding signal (z-score),[26],-0.155
same,glycan array binding signal (z-score),[27],-0.164
same,glycan array binding signal (z-score),[28],-0.109
same,glycan array binding signal (z-score),[29],-0.095
same,glycan array binding signal (z-score),[30],-0.157

# From the supplement of paper PMC8728848
